The record followed here is the supplement of paper PMC4604168 (melanoma cell lines).

Some of the results follow. Single values are uncertain, as repeats are few or missing.

Test in all cases: cell count relative to DMSO control; melanoma cells; higher = more viable cells
What all share (details): library dose: low library concentration; 72 h

For experiment [1], the system named is WM115.
Experiment [2] deals with WM1716.
Experiment [3] relates to WM1745.
The test system of experiment [4] is WM3526.
Experiment [5] deals with WM3619.
Experiment [6] has as its system WM451Lu.
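Also: cell number obtained by counting DAPI-stained nuclei in high-throughput microscope images with image analysis software, screen run in 1,536-well plates.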

On to `CNC(=O)c1cc(Oc2ccc(NC(=O)Nc3ccc(Cl)c(C(F)(F)F)c3)cc2)ccn1` [sorafenib] + COC(=O)c1sccc1S(=O)(=O)Nc1ccc(Nc2ccccc2)cc1OC [GSK0660] (first compound 0.4 µM, partner dose 1 µM), for which the cell count is 103% in experiment [1]; 89.5% in experiment [2]; 88% in experiment [3]; 93.5% in experiment [4]; 78.7% in experiment [5]; 105% in experiment [6].
Consider `CS(=O)(=O)CCNCc1ccc(-c2ccc3ncnc(Nc4ccc(OCc5cccc(F)c5)c(Cl)c4)c3c2)o1` [lapatinib] + N#Cc1c(O)c2c(-c3ccc(-c4ccccc4O)cc3)csc2[nH]c1=O [A769662] (first compound 0.8 µM, partner dose 2 µM), for which the cell count in experiment [1] came out at 95.7%; in experiment [2] it was 117%; in experiment [3] it was 119%; in experiment [4], 85.5%; in experiment [5] it was 130%; in experiment [6], 101%.
As for `CNC(=O)c1cc(Oc2ccc(NC(=O)Nc3ccc(Cl)c(C(F)(F)F)c3)cc2)ccn1` [sorafenib] + CO[C@@H]1[C@H](N(C)C(=O)c2ccccc2)C[C@H]2O[C@]1(C)n1c3ccccc3c3c4c(c5c6ccccc6n2c5c31)C(=O)NC4 [Midostaurin] (first compound 0.4 µM, partner dose 0.08 µM), the cell count turned out to be 80.6% in experiment [1]; 63.5% in experiment [2]; 70.5% in experiment [3]; 92.5% in experiment [4]; 73.8% in experiment [5]; 111% in experiment [6].
Turning to `CN1CCN(c2ccc3nc(-c4c(N)c5c(F)cccc5[nH]c4=O)[nH]c3c2)CC1` [Dovitinib] + COCC[n+]1c2c(n(Cc3cnccn3)c1C)C(=O)c1ccccc1C2=O [YM155] (first compound 0.1 µM, partner dose 0.0004 µM), the cell count in experiment [1] is 97.8%; in experiment [2] it was 110%; in experiment [3] it was 87.3%; in experiment [4] it was 75.4%; in experiment [5], 84.8%; in experiment [6], 68.1%.
Regarding `C=CCNC1=C2C[C@@H](C)C[C@H](OC)[C@H](O)[C@@H](C)/C=C(\C)[C@H](OC(N)=O)[C@@H](OC)/C=C\C=C(/C)C(=O)NC(=CC1=O)C2=O` [Tanespimycin] + O=C(O)C(=O)Nc1sc2c(c1C(=O)O)CCNC2 [TCS401] (first compound 0.002 µM, partner dose 1.66667 µM), the cell count in experiment [1] is 98.4%; in experiment [2], 109%; in experiment [3], 85.3%; in experiment [4], 88.2%; in experiment [5] it was 117%; in experiment [6] it was 65.6%.
Take `CN1CCN(c2ccc3nc(-c4c(N)c5c(F)cccc5[nH]c4=O)[nH]c3c2)CC1` [Dovitinib] + C[C@@H]1CCN(C(=O)CC#N)C[C@@H]1N(C)c1ncnc2[nH]ccc12 [CP690550] (first compound 0.1 µM, partner dose 1 µM): the cell count in experiment [1] amounted to 92.2%; in experiment [2], 103%; in experiment [3], 84.6%; in experiment [4] it was 130%; in experiment [5] it was 99.6%; in experiment [6], 92.8%.
Regarding `CN1CCN(c2ccc3nc(-c4c(N)c5c(F)cccc5[nH]c4=O)[nH]c3c2)CC1` [Dovitinib] + Cc1ccc(NC(=O)c2cccc(N(C)C)c2)cc1NC(=O)c1ccc(O)cc1 [ZM336372] (first compound 0.1 µM, partner dose 2 µM), the cell count in experiment [1] is 79%; in experiment [2] it was 110%; in experiment [3], 83.8%; in experiment [4] it was 79.4%; in experiment [5] it was 111%; in experiment [6], 79.8%.
Take `CN1CCN(c2ccc3nc(-c4c(N)c5c(F)cccc5[nH]c4=O)[nH]c3c2)CC1` [Dovitinib] + Oc1cc(-c2nc(-c3ccccc3)[nH]c2-c2ccncc2)ccc1Cl [L779450] (first compound 0.1 µM, partner dose 0.2 µM): the cell count in experiment [1] amounted to 82.9%; in experiment [2], 107%; in experiment [3] it was 87.1%; in experiment [4], 81.2%; in experiment [5], 93.7%; in experiment [6], 100%.
`C=CCNC1=C2C[C@@H](C)C[C@H](OC)[C@H](O)[C@@H](C)/C=C(\C)[C@H](OC(N)=O)[C@@H](OC)/C=C\C=C(/C)C(=O)NC(=CC1=O)C2=O` [Tanespimycin] + CC(C)CCN1c2nc(Nc3cc(F)c(O)c(F)c3)ncc2N(C)C(=O)C1C [BID1870] (first compound 0.002 µM, partner dose 0.2 µM): the cell count in experiment [1] amounted to 97.7%; in experiment [2], 67.9%; in experiment [3] it was 95.6%; in experiment [4], 82.6%; in experiment [5] it was 76.3%; in experiment [6], 95.1%.
`CS(=O)(=O)CCNCc1ccc(-c2ccc3ncnc(Nc4ccc(OCc5cccc(F)c5)c(Cl)c4)c3c2)o1` [lapatinib] + CCN(CC)CCCCNc1ncc2cc(-c3cc(OC)cc(OC)c3)c(NC(=O)NC(C)(C)C)nc2n1 [PD173074] (first compound 0.8 µM, partner dose 0.1 µM): the cell count worked out at 111% in experiment [1]; 98.5% in experiment [2]; 91% in experiment [3]; 90.1% in experiment [4]; 91.8% in experiment [5]; 94.1% in experiment [6].
Consider `CS(=O)(=O)CCNCc1ccc(-c2ccc3ncnc(Nc4ccc(OCc5cccc(F)c5)c(Cl)c4)c3c2)o1` [lapatinib] + CN(NC(=O)CC(=O)NN(C)C(=S)c1ccccc1)C(=S)c1ccccc1 [STA4783] (first compound 0.8 µM, partner dose 0.006 µM), for which the cell count in experiment [1] is 83.8%; in experiment [2], 80.8%; in experiment [3], 50.2%; in experiment [4], 103%; in experiment [5] it was 59.4%; in experiment [6] it was 88.8%.
Consider `C[C@@H](Oc1cc(-c2cnn(C3CCNCC3)c2)cnc1N)c1c(Cl)ccc(F)c1Cl` [Crizotinib] + Cc1ccc(NC(=O)c2cccc(N(C)C)c2)cc1NC(=O)c1ccc(O)cc1 [ZM336372] (first compound 0.2 µM, partner dose 2 µM), for which the cell count in experiment [1] worked out at 81%; in experiment [2] it was 91.1%; in experiment [3], 82.7%; in experiment [4], 101%; in experiment [5], 104%; in experiment [6], 96.6%.
Regarding `CS(=O)(=O)CCNCc1ccc(-c2ccc3ncnc(Nc4ccc(OCc5cccc(F)c5)c(Cl)c4)c3c2)o1` [lapatinib] + O=S(=O)(c1ccccc1)N(CC(F)(F)F)c1ccc(C(O)(C(F)(F)F)C(F)(F)F)cc1 [T0901317] (first compound 0.8 µM, partner dose 1.4 µM), the cell count in experiment [1] was found to be 112%; in experiment [2], 88.3%; in experiment [3], 92.3%; in experiment [4], 90.8%; in experiment [5] it was 89.7%; in experiment [6] it was 100%.
For the molecule `C[C@@H](Oc1cc(-c2cnn(C3CCNCC3)c2)cnc1N)c1c(Cl)ccc(F)c1Cl` [Crizotinib] + Cc1cc([N+](=O)[O-])ccc1NS(=O)(=O)c1cc(Cl)ccc1Cl [FH535] (first compound 0.2 µM, partner dose 1 µM), the cell count in experiment [1] turned out to be 97.7%; in experiment [2] it was 98.1%; in experiment [3], 93.5%; in experiment [4], 96.6%; in experiment [5], 107%; in experiment [6] it was 94.7%.
Turning to `C=CCNC1=C2C[C@@H](C)C[C@H](OC)[C@H](O)[C@@H](C)/C=C(\C)[C@H](OC(N)=O)[C@@H](OC)/C=C\C=C(/C)C(=O)NC(=CC1=O)C2=O` [Tanespimycin] + Oc1nc(-c2ccc(C(F)(F)F)cc2)nc2c1CSCC2 [XAV939] (first compound 0.002 µM, partner dose 2 µM), the cell count in experiment [1] turned out to be 90.7%; in experiment [2], 67.3%; in experiment [3], 58.2%; in experiment [4] it was 93.9%; in experiment [5], 74.6%; in experiment [6], 105%.
`CS(=O)(=O)CCNCc1ccc(-c2ccc3ncnc(Nc4ccc(OCc5cccc(F)c5)c(Cl)c4)c3c2)o1` [lapatinib] + CC(C)(C)c1cnc(CSc2cnc(NC(=O)C3CCNCC3)s2)o1 [SNS-032] (first compound 0.8 µM, partner dose 0.01 µM): the cell count in experiment [1] was 104%; in experiment [2], 114%; in experiment [3] it was 94.3%; in experiment [4] it was 97.8%; in experiment [5], 176%; in experiment [6], 99.3%.
In the case of `CNC(=O)c1cc(Oc2ccc(NC(=O)Nc3ccc(Cl)c(C(F)(F)F)c3)cc2)ccn1` [sorafenib] + Oc1nc(-c2ccc(C(F)(F)F)cc2)nc2c1CSCC2 [XAV939] (first compound 0.4 µM, partner dose 2 µM), the cell count in experiment [1] was 95.4%; in experiment [2] it was 63.3%; in experiment [3] it was 87.5%; in experiment [4] it was 108%; in experiment [5] it was 116%; in experiment [6], 133%.
For the molecule `CS(=O)(=O)CCNCc1ccc(-c2ccc3ncnc(Nc4ccc(OCc5cccc(F)c5)c(Cl)c4)c3c2)o1` [lapatinib] + NCC(=O)Nc1ccc(-n2nc(C(F)(F)F)cc2-c2ccc3c(ccc4ccccc43)c2)cc1 [OSU03012] (first compound 0.8 µM, partner dose 1 µM), the cell count in experiment [1] was found to be 88%; in experiment [2] it was 122%; in experiment [3], 86.7%; in experiment [4], 59.8%; in experiment [5], 142%; in experiment [6], 61%.
As to `C[C@@H](Oc1cc(-c2cnn(C3CCNCC3)c2)cnc1N)c1c(Cl)ccc(F)c1Cl` [Crizotinib] + Cc1cc(N2CCOCC2)cc2[nH]c(-c3c(NC[C@@H](O)c4cccc(Cl)c4)cc[nH]c3=O)nc12 [BMS536924] (first compound 0.2 µM, partner dose 0.2 µM), the cell count in experiment [1] is 101%; in experiment [2], 105%; in experiment [3], 61.9%; in experiment [4], 90.1%; in experiment [5], 128%; in experiment [6], 93.5%.
With `CNC(=O)c1cc(Oc2ccc(NC(=O)Nc3ccc(Cl)c(C(F)(F)F)c3)cc2)ccn1` [sorafenib] + C#Cc1cccc(Nc2ncnc3cc(OCCOC)c(OCCOC)cc23)c1 [erlotinib] (first compound 0.4 µM, partner dose 0.8 µM), the cell count in experiment [1] stood at 91.1%; in experiment [2] it was 94.5%; in experiment [3] it was 65.6%; in experiment [4], 90.8%; in experiment [5], 108%; in experiment [6], 112%.
With `C[C@@H](Oc1cc(-c2cnn(C3CCNCC3)c2)cnc1N)c1c(Cl)ccc(F)c1Cl` [Crizotinib] + CC(C)CCN1c2nc(Nc3cc(F)c(O)c(F)c3)ncc2N(C)C(=O)C1C [BID1870] (first compound 0.2 µM, partner dose 0.2 µM), the cell count in experiment [1] came out at 93.8%; in experiment [2], 95.4%; in experiment [3], 104%; in experiment [4] it was 126%; in experiment [5], 111%; in experiment [6], 112%.
On to `CNC(=O)c1cc(Oc2ccc(NC(=O)Nc3ccc(Cl)c(C(F)(F)F)c3)cc2)ccn1` [sorafenib] + C=C(c1ccc(C(=O)O)cc1)c1cc2c(cc1C)C(C)(C)CCC2(C)C [Bexarotene] (first compound 0.4 µM, partner dose 2 µM), for which the cell count is 108% in experiment [1]; 91.3% in experiment [2]; 85.2% in experiment [3]; 98% in experiment [4]; 105% in experiment [5]; 93.6% in experiment [6].
Take `CNC(=O)c1cc(Oc2ccc(NC(=O)Nc3ccc(Cl)c(C(F)(F)F)c3)cc2)ccn1` [sorafenib] + C[C@]1(c2nc3c(C(N)=O)cccc3[nH]2)CCCN1 [Veliparib] (first compound 0.4 µM, partner dose 1.4 µM): the cell count was 90.9% in experiment [1]; 92.1% in experiment [2]; 100% in experiment [3]; 110% in experiment [4]; 117% in experiment [5]; 109% in experiment [6].
